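Values below derive from 48-hour exposures of cells grown in 96-well plates, with endpoints linearly interpolated between the two concentrations bracketing the appropriate inhibition level. At the GI50, growth is halved.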 Active and inactive are the calls of the source. Cut-off read from the data, not from the text of the source: active = GI50 up to about 1.1 µM and inactive = higher. Some results are limits rather than exact numbers.

In the assay the test system is NCI-H322M. In words: DTP human tumour cell line panel, 48 h.
Usually GI50 stands for the concentration that inhibits growth by half. For the compound `COc1ccc(Cc2cc(OC)c(OC)c(OC)c2)cc1O`, the GI50 was active: < 0.0266 µM.

With `C=CCSc1nc2ccccc2c(=O)n1Cc1ccco1`, the GI50 was inactive: > 100 µM. In the case of `O=C(O)c1cscc1Cc1cccs1`, the GI50 is inactive: > 100 µM.

For the compound `CC1(c2cccc3ccccc23)OC(=O)c2ccccc21` (stereo unspecified), the GI50 is inactive: 38.7 µM.

Regarding `COc1cc(S(=O)(=O)Nc2ccc(-c3csc(N4C(=O)CSC4c4ccccc4)n3)cc2)ccc1Cl` (stereo unspecified), the GI50 was inactive: 6.75 µM. As to `COc1ccc(C2c3cc4c(cc3OC(O)(CO)C2C(=O)O)OCO4)c(OC)c1OC.COc1ccc(C2c3cc4c(cc3OC3(O)COC(=O)C23)OCO4)c(OC)c1OC` (stereo unspecified), the GI50 was inactive: > 100 µM. Take `COc1ccc(NC(=O)CSC(=O)c2ccccc2)c(SCCSSCCSc2cc(OC)ccc2NC(=O)CSC(=O)c2ccccc2)c1`: the GI50 was inactive: 24.5 µM. For `O=C1CCC(=O)N1CNc1ccc2c(c1)Sc1ccccc1O2`, the GI50 was inactive: 44 µM. As for `O=c1oc2c(ccc3occc32)c(N2CCCCC2)c1-c1ccccc1`, the figure is inactive: > 100 µM; as for `NC(=O)N/N=C(\CC1OC(=O)c2ccccc21)c1ccc([N+](=O)[O-])cc1` (stereo unspecified), inactive: 28.6 µM. `CN(CCc1ccccn1)C(=S)N/N=C(\c1ccccc1)c1ccccn1`: the GI50 is active: < 0.0139 µM. Then `Cc1ccsc1/C=N/Nc1ccccn1`, with inactive: > 100 µM.

In the case of `Nc1cccnc1NCC1(CO)CCCC1`, the GI50 was inactive: > 100 µM. Regarding `Cc1ccc(S(=O)(=O)NCCCSCCSCCCN)cc1`, the GI50 was inactive: > 100 µM. Turning to `COc1ccc(C2=C3c4cc(OC)c(OC)cc4CCN3C(=S)SS2)cc1OC`, the GI50 was inactive: > 10 µM. As for `COC1C(CN[N+](=O)CC2OC3OC(C)(C)OC3C2OC)OC2OC(C)(C)OC21` (stereo unspecified), the GI50 is inactive: > 100 µM.

On to `CC1CC2(OC2C)C(=O)OC2CCN(C)C/C=C(/COC(=O)C1(C)O)C2=O` (stereo unspecified), for which the GI50 was inactive: > 100 µM. Turning to `COc1ccc(S(=O)(=O)NNS(C)(=O)=O)cc1`, the GI50 is inactive: > 100 µM. In the case of `COc1ccc2[nH]c3c(c2c1)CC(=S)N1CCCC(CC3=O)C1` (stereo unspecified), the GI50 is inactive: 63.5 µM. Take `CC12CC(Br)(Br)C(=O)C3C1CCCC32`: the GI50 is inactive: 15.6 µM. `COc1ccccc1NC(=S)NN=C(C)c1cccc(C(C)=NNC(=S)Nc2ccccc2OC)n1`: the GI50 is inactive: 36.3 µM. Consider `CSc1nc(NC2OC(COC(C)=O)C(OC(C)=O)C(OC(C)=O)C2OC(C)=O)c(-c2csc(N)n2)c(=O)n1C` (stereo unspecified), for which the GI50 is inactive: 54 µM. Take `Cc1cc(C)n2c(nc3ccccc32)c1C#N`: the GI50 was inactive: > 100 µM. For the compound `Oc1ccc(/C=N/NC(=S)Nc2cccnc2)nc1`, the GI50 is inactive: 5.12 µM. Consider `COc1cc(OC)c(/C=C\c2ccnc3ccccc23)c(OC)c1`, for which the GI50 is inactive: 2.49 µM.

For `CCC1(CC)C(=O)N(C(=O)c2ccccc2)N(C(=O)c2ccc(Cl)cc2)C1=O`, the GI50 was inactive: > 75 µM.

On to `NC(Cc1ccc(S(=O)(=O)O)cc1)C(=O)NC(Cc1ccc(S(=O)(=O)O)cc1)C(=O)NC(Cc1ccc(S(=O)(=O)O)cc1)C(=O)NC(Cc1ccc(S(=O)(=O)O)cc1)C(=O)O` (stereo unspecified), for which the GI50 is inactive: > 100 µM.

For the compound `C=C1C2C[C@@H]3O[C@H]4C[C@H]5O[C@@]6(C[C@@H]7O[C@]8(C[C@H](C)[C@@H]9O[C@@H]%10CC(C=O)O[C@@H]%10C[C@@H]9O8)C[C@H](C)[C@@H]7O6)C[C@H]5O[C@H]4[C@H](C)[C@H]3OC(=O)C[C@H]3CC[C@@H]4OC5[C@H]6O[C@]7(CC[C@H]8CC(=C)[C@H](CC[C@@H](C[C@H]1C)O2)O8)CC6O[C@@H]5[C@@H](O7)[C@H]4O3` (stereo partly specified), the concentration for 50% growth inhibition (GI50) is active: < 0.0001 µM. For `CC1CC(=O)C2CC(CO)=CCCC2C1(C)CC/C(=C/CO)CO` (stereo unspecified), the GI50 was inactive: > 100 µM. Turning to `CC1CCP(=O)(c2ccccc2)CC1` (stereo unspecified), the GI50 was inactive: > 100 µM. On to `CSc1nnc(C(C#N)C#N)nn1`, for which the GI50 is inactive: > 100 µM.
